Laboratory results published in paper PMC5620161, “Remarkably similar CTLA-4 binding properties of therapeutic ipilimumab and tremelimumab antibodies” (Oncotarget, 2017).

Biological target: the molecule itself
Assay: crystal structure; ipilimumab-scFv/CTLA-4 complex, 10 mg/mL, sitting drop, 18°C, 100 mM BICINE, 10% PEG 20000, 2% 1,4-Dioxane, pH 9.0; molecular replacement

B1: ectodomain of human CTLA-4 ([…]) (domain or fragment)
chain: not shown
notes: CTLA-4, human, ectodomain, […] of […]; Homodimer held by a disulfide bond (non-reducing SDS-PAGE and crystal structure); Cloned into pET-21a; also called extracellular domain of CTLA-4
For B1, the “stoichiometry N” value was 2.
